# According to PubChem BioAssay AID624418 (National Center for Advancing Translational Sciences (NCATS), 2012):
# About 530 (0.13%) of roughly 410,000 compounds were called active. The shares of active, inactive and inconclusive entries below differ from those in the screen. Calls come from the whole dose curve; as a rule, active = well fitted inhibition curve with a large enough effect; inconclusive = small, poorly fitted or top-dose-only effect, or another doubt; inactive = no such curve, though single readings can be large or run the other way. A potency beside an inconclusive call is a rough fit, not a confirmed value.
# Experiment: qHTS of GLP-1 Receptor Inverse Agonists: Cytotox Screen
# Settings: HEK293 cAMP-luciferase reporter cells, luminescence, 24 h; activity change, negative = inhibition: at 38.3 µM (top of the series) unless noted
# Procedure, shortened: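 Step one: seed cells (200 cells/uL, DMEM with 10% Nu serum, 1% pen-strep). Step two: 12-hour incubation at 37 deg C. Step three: pin 23 nL compound, incubate 24 hr. Step four: add luciferase reagent, read luminescence 12 min later.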
# % is set by controls: 0 for no effect and ±100 for the full control effect; potency is the fitted concentration of half-maximal effect.
Compound,Potency,"activity change, negative = inhibition"
CCCCNC(=O)CSc1nc2ccc(Nc3nc(N4CCOCC4)nc(N4CCOCC4)n3)cc2s1,"inconclusive: 10 µM [inhibitor, single point]",–
CC(C)CCN1NC2(CCC(C)CC2)NC1=S (configuration not stated),"inconclusive: 28.2 µM [inhibitor, single point]",–
COc1cccc(NC(=O)c2cc([N+](=O)[O-])ccc2NCc2cccnc2)c1,"inconclusive: 31.6 µM [inhibitor, single point]",–
O=c1[nH]c(SCc2ccccc2Cl)nc2c1CCC2,–,inactive: 9.37%
COC(=O)c1ccc2c(=O)n(-c3ccccc3)c(=S)[nH]c2c1,–,inactive: -10%
NC(=O)C1CCN(c2cc(Cl)ccc2[N+](=O)[O-])CC1,"inconclusive: 22.4 µM [inhibitor, single point]",–
COc1cc(OC)cc(-c2noc(-c3csc([C@@H]4O[C@H](CO)[C@H](O)[C@H](O)[C@H]4O)n3)n2)c1,"inconclusive: 28.2 µM [inhibitor, single point]",–
O=C(NC(=S)Nc1ccccc1Cl)c1ccco1,"inconclusive: 28.2 µM [inhibitor, single point]",–
O=C(Nc1cccc(-c2csc(Nc3ccccc3)n2)c1)c1cc([N+](=O)[O-])cc(C(F)(F)F)c1,"inconclusive: 0.501 µM [inhibitor, full curve, poor fit]",–
Cc1cccc(NC(=O)CNC(=O)Cn2ncc(Cl)c(Cl)c2=O)c1C,"inconclusive: 17.8 µM [inhibitor, partial curve, poor fit]",–
N/C(=N\OC(=O)C(c1ccccc1)c1ccccc1)c1ccccn1,"inconclusive: 11.2 µM [inhibitor, partial curve, poor fit]",–
O=c1[nH]c(-c2ccccn2)nc(C(F)(F)F)c1Br,"inconclusive: 28.2 µM [inhibitor, single point]",–
Cc1ccc(Nc2nnc(SCn3nnc4ccccc4c3=O)s2)cc1,"inconclusive: 10 µM [inhibitor, partial curve, poor fit]",–
Cc1cc(C)nc(/N=C(\N)Nc2ccccc2-c2ccccc2)n1,"inconclusive: 28.2 µM [inhibitor, single point]",–
COCCNC(=O)Cn1c(=O)n(-c2ccc(C)c(C)c2)c(=O)c2c3c(sc21)CCCCC3,–,inactive: -0.199%
CCCC(CC)Sc1nc2c([nH]1)c(=S)n(C)c(=O)n2C (configuration not stated),active: 0.891 µM,–
CC1CC(C)CN(S(=O)(=O)c2ccc(NC(=O)CN3CCCCCC3)cc2)C1 (configuration not stated),"inconclusive: 22.4 µM [inhibitor, single point]",–
CCn1c2ccccc2c2cc(/C=N/n3cn[nH]c3=S)ccc21,"inconclusive: 3.98 µM [inhibitor, full curve, poor fit]",–
COC(=O)c1sc(NC(=O)COc2ccccc2)nc1C,–,inactive: -6.53%
CCCc1oc2ccc(NS(=O)(=O)c3ccc(OC)cc3)cc2c1C(=O)OCC,"inconclusive: 0.891 µM [inhibitor, full curve, poor fit]",–
Cc1ccc(-c2[nH]c3ccccc3c2C(C[N+](=O)[O-])c2ccco2)cc1 (configuration not stated),"inconclusive: 7.94 µM [inhibitor, partial curve, poor fit]",–

Compound,Potency,"activity change, negative = inhibition"
Cc1cn([C@H]2C[C@H](O)[C@@H](CNC/C=C/c3ccccc3[N+](=O)[O-])O2)c(=O)[nH]c1=O,–,inactive: 5.04%
COc1ccc(N2CCN(S(=O)(=O)CCNC(=O)Cc3ccc(-c4ccccc4)cc3)CC2)cc1,–,inactive: 6.81%
Nc1nc(N=Nc2ccc(O)cc2)cc(=O)[nH]1,active: 10 µM,–
CCCCNC(=S)N/N=C/c1ccc(C)s1,"inconclusive: 2.51 µM [inhibitor, full curve]",–
COC(=O)c1c[nH]c2c1-c1cc(C(=O)OCc3ccccc3)n(S(=O)(=O)c3ccc(C)cc3)c1C(=O)C2=O,"inconclusive: 11.2 µM [inhibitor, partial curve, poor fit]",–
O=C(O)c1ccc(Cn2nnc3sc4c(c3c2=O)CCCC4)cc1,–,inactive: -1.8%
COc1ccc(-c2csc3nc(-c4cccnc4)nc(Cl)c23)cc1OC,–,inactive: -13.1%
COc1ccccc1NC1=C(NC(C)=O)C(=O)c2ccccc2C1=O,"inconclusive: 28.2 µM [inhibitor, single point]",–
CCC(C)c1ccc(O)c(NC(=O)c2cncc(Br)c2)c1 (configuration not stated),"inconclusive: 5.01 µM [inhibitor, partial curve]",–
Cc1c(C)n(C)c2ccc(C(=O)NCCN3CCOCC3)cc12,"inconclusive: 28.2 µM [inhibitor, single point]",–
CCN1CCCC1CNC(=O)C1CCN(C(=O)c2cc3sccc3n2Cc2ccc(F)cc2)CC1 (configuration not stated),"inconclusive: 28.2 µM [inhibitor, single point]",–
CC(C)(C)c1cc(NCCCn2ccnc2)n2ncc(-c3ccccc3)c2n1,"inconclusive: 31.6 µM [inhibitor, single point]",–
CCCCN(C)c1ncnc2c1cnn2-c1cccc(Cl)c1,–,inactive: 23.3%
O=C(NC1(C(F)(F)F)Oc2ccccc2O1)N1CCCC1,"inconclusive: 28.2 µM [inhibitor, single point]",–
CCOC(=O)C1=C(c2ccc(OC)cc2)C(=O)c2ccccc2C1=O,"inconclusive: 4.47 µM [inhibitor, partial curve]",–
CN(C)CCCn1cnc2c(c1=N)C(c1ccccc1)c1ccc3ccccc3c1O2 (configuration not stated),"inconclusive: 28.2 µM [inhibitor, single point]",–
COc1ccc(C(=O)Nc2cc(C(=O)NCCc3ccccc3)ccc2Cl)cc1,"inconclusive: 22.4 µM [inhibitor, single point]",–
C/C(CCC12CC3CC(CC(C3)C1)C2)=N\NC(N)=S,"inconclusive: 5.01 µM [inhibitor, partial curve]",–
O=C1NC[C@@H](CCCCN2CCN(CCc3ccc(O)cc3)C(=O)C2=O)N(CCC2CCCCC2)C1=O,–,inactive: 1.88%
COc1ccc(-c2[nH]ncc2/C=N\NC(=O)c2ccc(C(C)(C)C)cc2)cc1OC,"inconclusive: 28.2 µM [inhibitor, single point]",–
COc1ccc(CCNc2ccc(N3C(=O)CC(C)C3=O)cc2[N+](=O)[O-])cc1 (configuration not stated),"inconclusive: 31.6 µM [inhibitor, single point]",–
